{"source": "PubChem BioAssay AID1345083", "about": "(National Center for Advancing Translational Sciences (NCATS), 2018)", "note": "Screen size: about 94,000 compounds; about 6,200 (6.6%) were called active. The shares of active, inactive and inconclusive entries below differ from those in the screen. The call rests on the fitted dose curve; in most records, active means well fitted inhibition curve with a large enough effect; inconclusive means small, poorly fitted or top-dose-only effect; inactive means flat fitted curve, though single readings scatter. A potency beside an inconclusive call is a rough fit, not a confirmed value. Potency means the concentration at half of the fitted maximal effect; tags describe the fitted curve by direction and shape."}
{"test": "Cytotoxic Profiling in HEK 293 Cell Line of Diverse Libraries Using Quantitative High-Throughput Screening; further: nearly all actives have a fitted effect of over 60% in size", "settings": "HEK 293 viability, ATP luminescence (CellTiter-Glo), 48-72 h; series mostly up to 115 µM", "in_short": "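CellTiter-Glo luminescence (cellular ATP) was read after 48 or 72 hr of compound exposure at 37 degree Celsius. Cells were HEK 293 plated at 250 cells/well.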"}
{"smiles": "CCN1CCN(CCNC(=O)Cc2cccn2-c2ccc(C)cc2)CC1", "Potency": "inactive"}
{"smiles": "COc1ccc(-c2nnc(C[C@@H]3C[C@@H](C(C)C)[C@H](CNCc4cccnc4)C=C3C)o2)cc1", "Potency": "inconclusive: 50.1 µM [inhibitor, partial curve, poor fit]"}
{"smiles": "O=C(CCc1cccnc1)N1CC(CNc2ccccc2)C2(C1)CN(c1ccccc1)C2", "note": "(stereo not given)", "Potency": "inconclusive: 79.4 µM [inhibitor, partial curve, poor fit]"}
{"smiles": "CCOc1ccc2c(n1)CCN(C(=O)CCc1ccccc1)C2", "Potency": "inconclusive: 100 µM [inhibitor, single point]"}
{"smiles": "CC(=O)N1Cc2ccccc2NC(=O)C12CCNC2", "note": "(stereo not given)", "Potency": "inactive"}
{"smiles": "CC1=C[C@@H](CNC(=O)CCCC(=O)O)[C@H](C(C)C)C[C@H]1Cc1nc2ccc(Cl)cc2[nH]1", "Potency": "inactive"}
{"smiles": "Cc1ccccc1S(=O)(=O)N1CCCC(CCC(=O)NCCN(C)C2CCCCC2)C1", "note": "(stereo not given)", "Potency": "inconclusive: 50.1 µM [inhibitor, partial curve, poor fit]"}
{"smiles": "COC[C@@H]1CN(C(=O)c2ccc(F)c(F)c2)C[C@H]1C(N)=O", "Potency": "inactive"}
{"smiles": "c1ccc([C@@H]2CNC[C@H]2COc2cccnc2)nc1", "Potency": "inconclusive: 39.8 µM [inhibitor, single point]"}
{"smiles": "COc1ccc(-c2ccc(C(=O)NCc3cccc(C(F)(F)F)c3)cc2)nn1", "Potency": "inactive"}
{"smiles": "COc1ncc(-c2n[nH]c3c2CC(=O)N(Cc2ccccc2)C3)cn1", "Potency": "inconclusive: 12.6 µM [inhibitor, full curve, poor fit]"}
{"smiles": "Cc1nnc2n1CCC(N(C)S(=O)(=O)c1cn(C)cn1)CC2", "note": "(stereo not given)", "Potency": "inactive"}
{"smiles": "O=C(c1ccccc1)N1CCC(c2nn(-c3ccc(F)cc3)c(=O)[nH]2)CC1", "Potency": "inconclusive: 89.1 µM [inhibitor, single point]"}
{"smiles": "O=C(C[C@@H]1CCNC[C@@H]1Cc1cc(COc2ccccc2)on1)Nc1ccccc1", "Potency": "active: 39.8 µM"}
{"smiles": "CC(C)(C)NC(=O)C[C@@H]1CCNC[C@@H]1Cc1cc(-c2ccc(F)cc2)on1", "Potency": "inconclusive: 100 µM [inhibitor, partial curve, poor fit]"}
{"smiles": "CCC(=O)Nc1cccc(C2OC(=O)N(Cc3ccccc3)C2C(=O)Nc2ccc(F)cc2)c1", "note": "(stereo not given)", "Potency": "inconclusive: 56.2 µM [inhibitor, partial curve, poor fit]"}
{"smiles": "Cc1ccc(CN2CCC3(CNc4ccccc4[S+](=O)([O-])N3)C2)cc1", "note": "(stereo not given)", "Potency": "inconclusive: 50.1 µM [inhibitor, partial curve, poor fit]"}
{"smiles": "CN(C)c1nc2c(c(=O)[nH]1)CCN(Cc1ccc(C(F)(F)F)cc1)CC2", "Potency": "inactive"}
{"smiles": "CCOc1ccccc1C1NC(=O)N(CC(=O)N(CC)c2ccccc2)C2=C1C(=O)OC2", "note": "(stereo not given)", "Potency": "inactive"}
{"smiles": "CCOc1ccc(CN(C)C2CCOc3ccccc32)cc1", "note": "(stereo not given)", "Potency": "inconclusive: 100 µM [inhibitor, partial curve, poor fit]"}
{"smiles": "O=[S+]([O-])(NC1CCCN(Cc2ccc(-c3cncnc3)cc2)C1)c1ccccc1", "note": "(stereo not given)", "Potency": "inconclusive: 89.1 µM [inhibitor, single point]"}
{"smiles": "Cc1ncsc1CN1CC[C@H]2C(=O)NCCCCCCN(Cc3ccncc3)[C@@H]2C1", "Potency": "inactive"}
{"smiles": "O=C(c1scc2c1OCCO2)N1Cc2ccccc2C(O)C1", "note": "(stereo not given)", "Potency": "inactive"}
{"smiles": "COC(=O)c1ccc2nc(C[C@@H]3C[C@@H](C(C)C)[C@H](CNCc4ccc(OC)cc4O)C=C3C)[nH]c2c1", "Potency": "active: 20 µM"}
{"smiles": "COCCCNC(=O)C1CCCN1Cc1cccc(-c2ccc(C)c(Cl)c2)c1", "note": "(stereo not given)", "Potency": "inconclusive: 17.8 µM [inhibitor, full curve, poor fit]"}
{"smiles": "Clc1ccccc1C1(c2ccnc(CC3CC3)n2)CCNCC1", "Potency": "inconclusive: 56.2 µM [inhibitor, partial curve, poor fit]"}
{"smiles": "COc1ccc2nc([C@H]3CCN(Cc4cccc(OC(F)(F)F)c4)C3)[nH]c2c1", "Potency": "active: 100 µM"}
{"smiles": "O=C(Nc1ccc(-c2nnc3n2CCCC3)cc1)c1ccco1", "Potency": "inactive"}
{"smiles": "COc1ccc2nc3n(c2c1)[C@@H](CNC(=O)c1ccc(C#N)cc1)COC3", "Potency": "inactive"}
{"smiles": "COC(=O)N1CCN(C(=O)c2nc3cccnc3n(C3CC3)c2=O)CC1", "Potency": "inactive"}
{"smiles": "COCCN1C(=O)[C@@H]2C[C@@H](CN2Cc2ccccn2)Oc2ccccc21", "Potency": "inconclusive: 126 µM [inhibitor, single point]"}
{"smiles": "COc1ccc(CN2C[C@@H]3C[C@@H](C(N)=O)N(C(=O)C(C)C)c4cccc(c43)C2=O)cc1", "Potency": "inactive"}
{"smiles": "CN(C)C(=O)c1n[nH]c2c1CN(C(=O)c1ccc(F)cc1)CC2", "Potency": "inactive"}
{"smiles": "COc1ccccc1NC(=O)Cn1cccc1-c1nc(-c2ccc(F)cc2)no1", "Potency": "inactive"}
{"smiles": "COc1ccc(-c2ccccc2C(=O)NCCCOC(C)C)nn1", "Potency": "inconclusive: 100 µM [inhibitor, partial curve, poor fit]"}
{"smiles": "CCn1nc(C)c(CNC(=O)[C@@H]2C[C@@H](O)CN2C2CCN(C(=O)c3cccc(OC)c3)CC2)c1C", "Potency": "inactive"}
{"smiles": "CCc1nc2c(c(-c3ccc(O)cc3)n1)CCN(Cc1ccc(F)cc1)CC2", "Potency": "inconclusive: 79.4 µM [inhibitor, partial curve, poor fit]"}
{"smiles": "Clc1ccc(CNc2nc(-c3ccccc3)no2)cc1", "Potency": "inconclusive: 50.1 µM [inhibitor, partial curve, poor fit]"}
{"smiles": "Cc1ccccc1-c1nc(C2CC(=O)N(c3ccc(F)cc3)C2)no1", "note": "(stereo not given)", "Potency": "inconclusive: 56.2 µM [inhibitor, partial curve, poor fit]"}
{"smiles": "COC[C@@H]1CN(C(=O)c2ccc(C)cn2)C[C@H]1c1nc(C2CC2)no1", "Potency": "inactive"}
{"smiles": "O=C1N2CCCC2CN1C1CCN(Cc2ccc3ccccc3c2)CC1", "note": "(stereo not given)", "Potency": "inconclusive: 56.2 µM [inhibitor, partial curve, poor fit]"}
{"smiles": "CC1=C[C@@H](CC#N)[C@H](C(C)C)C[C@H]1CC(=O)NCc1ccc(C(F)(F)F)cc1", "Potency": "inactive"}
{"smiles": "O=C(c1ccccc1)N1CCC2(CC1)COc1ccccc1CN2", "Potency": "inactive"}
{"smiles": "COc1cc(CN2CCN(Cc3ccc(-n4cccn4)cc3C)CC2CCO)cc(OC)c1", "note": "(stereo not given)", "Potency": "inconclusive: 56.2 µM [inhibitor, partial curve, poor fit]"}
{"smiles": "CN1[C@@H](CCC(=O)NCc2cccs2)CNC(=O)[C@@H]2[C@H]1CCN2Cc1ccccc1", "Potency": "inactive"}
